Results taken from PubChem BioAssay AID652104 (National Center for Advancing Translational Sciences (NCATS), 2013).
The whole screen tested about 410,000 compounds, of which about 7,200 (1.8%) were called active. Inconclusive results, whose numbers are uncertain, are shown with a selection of clear calls. Calls follow the shape of the dose curve; as a rule, active = well fitted activation curve with a large enough effect; inconclusive = small, poorly fitted or top-dose-only effect, or another doubt; inactive = no such curve, though single readings can be large or run the other way. Potencies of inconclusive entries are left out as doubtful fits.

Assay: qHTS of TDP-43 Inhibitors; also: nearly all actives have a fitted effect of over 50% in size
Conditions: TDP-43 expressing yeast growth rescue, BacTiter-Glo, 24 h; series mostly up to 46.1 µM
In short: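 Readout is BacTiter-Glo luminescence of cell growth, so inhibitors register as activators. TDP-43-expressing yeast at OD600=0.02 in galactose medium, after raffinose pregrowth to mid-log, were incubated with compound for 24 hr at 30 deg C.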
Potency is read from the fitted curve at half-maximal effect; tags tell the direction and shape of the fitted curve.

Structure (SMILES)	Potency
Cc1cccc(NC(=O)/C(C#N)=C/c2ccccc2O)n1	inconclusive [activator, single point]
CC1CCC(NC(=O)c2ccc3c(c2)N(Cc2ccccc2F)C(=O)c2ccccc2S3)CC1 (configuration not stated)	inconclusive [activator, full curve, poor fit]
COc1ccc(-c2csc(C(O)c3ccc(F)c(OC)c3)n2)cn1 (configuration not stated)	active: 35.5 µM
COc1cccc(OCCSc2nnc3sc4ccccc4n23)c1	inconclusive [activator, single point]
NC(=O)C1CCN(CC(=O)Nc2ccc3c(c2)OCCO3)CC1	inconclusive [activator, partial curve]
COc1nc(NC23CC4CC(CC(C4)C2)C3)nc(OC)n1	active: 14.1 µM
COc1ccc(CC(NC(C)=O)C(=O)NC2CCN(c3nc(C)cc(C)c3C#N)CC2)c(OC)c1 (configuration not stated)	inactive
CC(C)(C)N(C(=O)Cn1nnc(-c2ccc(F)cc2)n1)C(C(=O)NC1CCCC1)c1ccncc1 (configuration not stated)	inconclusive [activator, single point]
COc1cc(Nc2nc(SCc3ccccc3F)nc3ccccc23)cc(OC)c1	inconclusive [activator, partial curve]
Cc1ccccc1OCCC(=O)N1CCN(S(=O)(=O)c2ccc(Br)cc2)CC1	inconclusive [activator, single point]
CC(C)Sc1nc2ccccc2n2cnnc12	inconclusive [activator, single point]
O=C(Nc1ccc(F)c(Cl)c1)c1cc(C2CCCN(S(=O)(=O)c3cccs3)C2)on1 (configuration not stated)	inconclusive [activator, partial curve]
CCOc1ccc(C(=O)NCCc2sc(-c3ccc(C)cc3)nc2C)cc1	inconclusive [activator, partial curve, poor fit]
CC(Sc1nnnn1C)C(=O)Nc1nc(-c2ccc(F)c(F)c2)cs1 (configuration not stated)	inconclusive [activator, partial curve]
O=C(OCn1nnc2ccccc2c1=O)c1cccnc1	inconclusive [activator, single point]
O=S(=O)(c1cccc(C(F)(F)F)c1)N1CCC(CO)(CCCc2ccccc2)CC1	inconclusive [activator, single point]
COc1ccc(C[C@@H]2OC3(C=CC(=O)C=C3)O[C@H]2Cc2ccc(OC)cc2)cc1	inconclusive [activator, single point]
CCCCNc1ccc(-c2nc(-c3ccccc3)no2)cc1[N+](=O)[O-]	inactive
CC1CN(C(=O)/C=C/c2ccc3c(c2)OCO3)CC(C)O1 (configuration not stated)	inactive
CSc1ncc(Cl)c(C(=O)NCc2ccc(C)cc2)n1	inconclusive [activator, single point]
CC(C)(C)NC(=O)CON=C1c2ccccc2-c2ccccc21	inconclusive [activator, single point]
Cc1ccc(Sc2ccc(N3CCCC(C(=O)Nc4ccc(Cl)cc4)C3)nn2)cc1 (configuration not stated)	inactive
CC1=C(C(=O)Nc2cccc(C)c2C)C2(CCCCC2)OC1=O	inconclusive [activator, partial curve, poor fit]
O=C(NC(=S)Nc1ccccc1N1CCCC1)c1ccc([N+](=O)[O-])cc1	inconclusive [activator, single point]

Structure (SMILES)	Potency
Cc1ccc(CS(=O)Cc2ccc(C(=O)N3CCN(c4cccc(C)c4C)CC3)o2)cc1 (configuration not stated)	inconclusive [activator, single point]
O=C(Nc1ccc(Cl)c(C(F)(F)F)c1)[C@@H]1CC=C[C@@H]2CCN(C3CC3)C(=O)[C@@H]21	inconclusive [activator, partial curve]
CCOc1ccccc1NC(=O)c1cccc2ccccc12	active: 7.94 µM
O=C(NC(=S)Nc1ccc(F)c(Cl)c1)C1CC1	active: 3.16 µM
O=c1[nH][nH]c2c1[C@H](c1ccc(F)cc1)O[C@H](CCC(F)(F)F)C2	active: 20 µM
CC1(C(=O)Nc2cccc(C(F)(F)F)c2)Cc2ccccc2C(=O)O1 (configuration not stated)	active: 35.5 µM
O=C(N1CCN(c2cccc(Cl)c2)CC1)C1(S(=O)(=O)c2ccc(Cl)cc2)CC1	inconclusive [activator, single point]
O=S(=O)(NCC1CCN(S(=O)(=O)c2ccccc2)CC1)c1ccccc1	inconclusive [activator, single point]
O=C1Nc2ccc(Br)cc2C1Cc1ccccc1F (configuration not stated)	inconclusive [activator, single point]
CCSc1ccc([C@@H]2[C@@H]3C(=O)N(CC)C(=O)[C@@H]3[C@]3(C(=O)OC)CCCCN23)cc1OC	inconclusive [activator, single point]
O=C(Nc1ccc2c(c1)OCO2)C1CCCN(c2nc3ccccc3s2)C1 (configuration not stated)	inactive
Cc1cc2nc(-c3ccccc3)c(CC(C)(C)C)n2c(C)c1Br	inconclusive [activator, single point]
COc1cc(OC)c(NC(=O)Nc2nnc(N(C)C3CCCCC3)s2)cc1Cl	inactive
Cc1cc(O)cc(C)c1NS(=O)(=O)c1ccc2ccccc2c1	inactive
Clc1ccc(-c2cnc3cccnn23)cc1	inconclusive [activator, partial curve]
Cc1nc2ccccn2c(=O)c1NC(=O)c1c(F)cccc1F	inactive
CSc1ccccc1NC(=O)C1CC(c2c(F)cccc2Cl)=NO1 (configuration not stated)	inconclusive [activator, partial curve]
COc1ccc(S(=O)(=O)n2nc(OC(C)=O)cc2N)cc1	inconclusive [activator, partial curve]
CCOC(=O)Cc1cc(-c2ccccc2)nc2ccc3ccccc3c12	inconclusive [activator, full curve, poor fit]
Cc1cc(C)cc(N=c2c([N+](=O)[O-])nn(-c3ccc4c(c3)OCCO4)n2O)c1	inactive
COc1ccccc1-c1nnc2sc(C3CCCCC3)nn12	inconclusive [activator, single point]
CC(C)=CC(=O)O[C@@H]1Cc2cc3ccc(=O)oc3cc2OC1(C)C	active: 14.1 µM
O=C1Cc2c([nH]c3ccc(Br)cc23)-c2ccccc2N1	inactive
C=CCn1c(O)c(N=NC(=S)Nc2cccc(C)c2)c2ccccc21	active: 11.2 µM

Structure (SMILES)	Potency
CCNC(=O)C(=O)N/N=C/c1cc([N+](=O)[O-])ccc1O	active: 20 µM
c1ccc(Nc2nc(-c3ccccn3)cs2)cc1	inconclusive [activator, single point]
OCCN=c1cc(-c2ccccc2)oc2ccc(Cl)cc12	inconclusive [activator, full curve]
Cc1c(/C=N/NC(N)=O)c2ccccn2c1C(=O)c1ccc(F)cc1	inconclusive [activator, partial curve, poor fit]
Cc1cc(NC(=O)Nc2cccc(Cl)c2)n(-c2ccccn2)n1	inconclusive [activator, partial curve]
Cn1c(O)c(N=NC(=O)c2ccccc2O)c2ccccc21	active: 15.8 µM
CC(=O)N1C2=CCCC3CCCCC23c2ccccc21 (configuration not stated)	inconclusive [activator, single point]
COc1cc(-c2nc(C(=O)NCC3CCCO3)cc3c2[nH]c2ccccc23)cc(OC)c1OC (configuration not stated)	active: 28.2 µM
N/C(=N\OC(=O)/C=C/c1ccccc1)c1ccc(Cl)cc1	inconclusive [activator, partial curve]
S=c1[nH]nc(C2(c3ccccc3)CCCC2)o1	inconclusive [activator, partial curve]
COc1ccc(C(C)(C)C)cc1NC(=O)c1ccc2ncsc2c1	inconclusive [activator, single point]
COc1ccc([C@H]2CC(=O)C=C(c3ccc(Cl)c(F)c3)C2)cc1	inconclusive [activator, single point]
COc1ccc(CCNC(=S)N2CCN(S(=O)(=O)c3ccccc3F)CC2)cc1	inconclusive [activator, partial curve]
CN(C)C(=O)c1ccc(NC(=O)COC(=O)c2cc3c(s2)CCCCC3)cc1	inconclusive [activator, partial curve]
C=CCn1c(-c2cccs2)nc2ccccc21	inactive
CSCc1cc(N(C)C)nc(SCc2ccc(Cl)cc2Cl)n1	inactive
CCCCC(CC)CNC(=O)CCCc1nnc2n(CCC)c(=O)c3sccc3n12 (configuration not stated)	inactive
O=C(Oc1ccc2ccc(O)cc2c1)C1CCCCC1	active: 22.4 µM
Cc1cccc(OCc2nc(C#N)c(NCc3ccccc3Cl)o2)c1	active: 28.2 µM
COc1ccc(NC(=O)CSc2nc3ccccc3[nH]2)cc1	inconclusive [activator, partial curve, poor fit]
N#Cc1ccccc1Cn1c(=O)n(C2CCCC2)c(=O)c2ccccc21	inconclusive [activator, partial curve]
O=C(COc1ccccc1Cl)Nc1nc2c(s1)CCCC2	active: 11.2 µM
Oc1ccc2c(c1)c1ccccc1c1ncccc21	inconclusive [activator, full curve]
COc1ccc(CNC(=O)C[C@H]2C[C@H](C(=O)N3CCOCC3)[C@@]3(CCC4CCCC4)c4[nH]c5ccc(Cl)cc5c4CCN3C2=O)cc1OC	inconclusive [activator, single point]
